The list shows a part of the results.
Key:
Assay in all cases: glycan array binding signal (z-score within array); higher = stronger binding
Conditions in all cases: glycan notation: IUPAC condensed, linker removed
[1] = molecular target: Neu5Ac(a2-3)Gal(b1-4)[Fuc2Me(a1-3)]GlcNAc(b1-3)Gal
In short: (§1)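 From the Consortium for Functional Glycomics database, 3228 arrays were curated, keeping only those whose protein sequence was available. Binding is given as a within-array Z-score averaged across arrays sharing a protein sequence and across linkers. Negative Z-scores can be read as non-binding.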

[2] = molecular target: Neu5Ac(a2-3)Gal(b1-4)[Qui(a1-3)]GlcNAc(b1-3)Gal
In short: as §1

[3] = molecular target: Neu5Ac(a2-3)Gal(b1-4)[Rha(a1-3)]GlcNAc(b1-3)Gal
In short: as §1

Neu5Ac(a2-3)Gal3S = molecular target: Neu5Ac(a2-3)Gal3S
In short: as §1

[4] = molecular target: Neu5Ac(a2-3)Gal6S(b1-4)[Fuc(a1-3)]GlcNAc(b1-3)Gal(b1-4)Glc
In short: as §1

[5] = molecular target: Neu5Ac(a2-3)Gal6S(b1-4)[Fuc(a1-3)]GlcNAc6S(b1-3)Gal(b1-4)Glc
In short: as §1

[6] = molecular target: Neu5Ac(a2-3)GalNAc(b1-4)GlcNAc
In short: as §1

[7] = molecular target: Neu5Ac(a2-3)GalNBz(b1-4)GlcNAc
In short: as §1

[8] = molecular target: Neu5Ac(a2-3)[GalNAc(b1-4)]Gal(b1-3)Gal
In short: as §1

[9] = molecular target: Neu5Ac(a2-3)[GalNAc(b1-4)]Gal(b1-3)GalNAc(b1-4)[Neu5Ac(a2-3)]Gal(b1-4)Glc
In short: as §1

[10] = molecular target: Neu5Ac(a2-3)[GalNAc(b1-4)]Gal(b1-3)Glc
In short: as §1

[11] = molecular target: Neu5Ac(a2-3)[GalNAc(b1-4)]Gal(b1-4)Glc
In short: as §1

[12] = molecular target: Neu5Ac(a2-3)[GalNAc(b1-6)]Gal(b1-4)Glc
In short: as §1

Neu5Ac(a2-6)Gal = molecular target: Neu5Ac(a2-6)Gal
In short: as §1

[13] = molecular target: Neu5Ac(a2-6)Gal(b1-3)GalNAc(b1-4)Gal(b1-4)Glc
In short: as §1

[14] = molecular target: Neu5Ac(a2-6)Gal(b1-3)GlcNAc(b1-3)[Fuc(a1-3)[Gal(b1-4)]GlcNAc(b1-6)]Gal(b1-4)Glc
In short: as §1

[15] = molecular target: Neu5Ac(a2-6)Gal(b1-3)GlcNAc(b1-3)[Gal(b1-4)GlcNAc(b1-6)]Gal(b1-4)Glc
In short: as §1

[16] = molecular target: Neu5Ac(a2-6)Gal(b1-3)[Neu5Ac(a2-6)]GalNAc(b1-4)Gal(b1-4)Glc
In short: as §1

Neu5Ac(a2-6)Gal(b1-4)Glc = molecular target: Neu5Ac(a2-6)Gal(b1-4)Glc
In short: as §1

[17] = molecular target: Neu5Ac(a2-6)Gal(b1-4)GlcNAc
In short: as §1

[18] = molecular target: Neu5Ac(a2-6)Gal(b1-4)GlcNAc(b1-2)Man(a1-3)[Neu5Ac(a2-6)Gal(b1-4)GlcNAc(b1-2)Man(a1-6)]Man(b1-4)GlcNAc(b1-4)GlcNAc
In short: as §1

[19] = molecular target: Neu5Ac(a2-6)Gal(b1-4)GlcNAc(b1-2)Man(a1-3)[Neu5Gc(a2-6)Gal(b1-4)GlcNAc(b1-2)Man(a1-6)]Man(b1-4)GlcNAc(b1-4)GlcNAc
In short: as §1

[20] = molecular target: Neu5Ac(a2-6)Gal(b1-4)GlcNAc(b1-2)[Neu5Ac(a2-3)Gal(b1-4)GlcNAc(b1-4)]Man(a1-3)[Neu5Ac(a2-3)Gal(b1-4)GlcNAc(b1-2)Man(a1-6)]Man(b1-4)GlcNAc(b1-4)GlcNAc
In short: as §1

[21] = molecular target: Neu5Ac(a2-6)Gal(b1-4)GlcNAc(b1-3)Gal(b1-4)Glc
In short: as §1

[22] = molecular target: Neu5Ac(a2-6)Gal(b1-4)GlcNAc(b1-3)Gal(b1-4)[Fuc(a1-3)]Glc
In short: as §1

[23] = molecular target: Neu5Ac(a2-6)Gal(b1-4)GlcNAc(b1-3)[Neu5Ac(a2-6)Gal(b1-4)GlcNAc(b1-6)]Gal(b1-4)Glc
In short: as §1

[24] = molecular target: Neu5Ac(a2-6)Gal(b1-4)GlcNAc(b1-6)[Gal(b1-3)GlcNAc(b1-3)]Gal(b1-4)Glc
In short: as §1

[25] = molecular target: Neu5Ac(a2-6)Gal(b1-4)[Fuc(a1-3)]GlcNAc(b1-3)Gal(b1-4)Glc
In short: as §1

[26] = molecular target: Neu5Ac(a2-6)Gal(b1-6)GalNAc(b1-4)Gal(b1-4)Glc
In short: as §1

Neu5Ac(a2-6)Gal6S = molecular target: Neu5Ac(a2-6)Gal6S
In short: as §1

[27] = molecular target: Neu5Ac(a2-6)Gal6S(b1-4)Glc
In short: as §1

[28] = molecular target: Neu5Ac(a2-6)Gal6S(b1-4)Glc4S
In short: as §1

Neu5Ac(a2-6)GalNAc = molecular target: Neu5Ac(a2-6)GalNAc
In short: as §1

Neu5Ac(a2-6)Glc = molecular target: Neu5Ac(a2-6)Glc
In short: as §1

Neu5Ac(a2-6)Glc6S = molecular target: Neu5Ac(a2-6)Glc6S
In short: as §1

Neu5Ac(a2-6)GlcNAc = molecular target: Neu5Ac(a2-6)GlcNAc
In short: as §1

Neu5Ac(a2-6)GlcNAc6S = molecular target: Neu5Ac(a2-6)GlcNAc6S
In short: as §1

Neu5Ac(a2-8)Neu5Ac = molecular target: Neu5Ac(a2-8)Neu5Ac
In short: as §1

[29] = molecular target: Neu5Ac(a2-8)Neu5Ac(a2-3)Gal
In short: as §1

[30] = molecular target: Neu5Ac(a2-8)Neu5Ac(a2-3)Gal(b1-3)GalNAc(b1-4)[Neu5Ac(a2-3)]Gal(b1-4)Glc
In short: as §1

[31] = molecular target: Neu5Ac(a2-8)Neu5Ac(a2-3)Gal(b1-3)GalNAc(b1-4)[Neu5Ac(a2-8)Neu5Ac(a2-3)]Gal(b1-4)Glc
In short: as §1

[32] = molecular target: Neu5Ac(a2-8)Neu5Ac(a2-3)Gal(b1-4)Glc
In short: as §1

[33] = molecular target: Neu5Ac(a2-8)Neu5Ac(a2-3)[Gal(b1-3)GalNAc(b1-4)]Gal(b1-4)Glc
In short: as §1

[34] = molecular target: Neu5Ac(a2-8)Neu5Ac(a2-3)[GalNAc(b1-4)]Gal(b1-4)Glc
In short: as §1

[35] = molecular target: Neu5Ac(a2-8)Neu5Ac(a2-6)Gal
In short: as §1

B1: HysACBM (Streptococcus pneumoniae), Q54873 (protein)
chain: KNLVENGDFGQTEDGSSPWTGSKAQGWSAWVDQKNSADASTRVIEAKDGAITISSHEKLRAALHRMVPIEAKKKYKLRFKIKTDNKIGIAKVRIIEESGKDKRLWNSATTSGTKDWQTIEADYSPTLDVDKIKLELFYETGTGTVSFKDIELVEVADQLS
glycan array binding signal (z-score) [1]: -0.091 | glycan array binding signal (z-score) [2]: -0.091 | glycan array binding signal (z-score) [3]: -0.091 | glycan array binding signal (z-score) (Neu5Ac(a2-3)Gal3S): -0.091 | glycan array binding signal (z-score) [4]: -0.091 | glycan array binding signal (z-score) [5]: -0.091 | glycan array binding signal (z-score) [6]: -0.091 | glycan array binding signal (z-score) [7]: -0.062 | glycan array binding signal (z-score) [8]: -0.091 | glycan array binding signal (z-score) [9]: 0.16 | glycan array binding signal (z-score) [10]: -0.091 | glycan array binding signal (z-score) [11]: -0.091 | glycan array binding signal (z-score) [12]: -0.091 | glycan array binding signal (z-score) (Neu5Ac(a2-6)Gal): -0.091 | glycan array binding signal (z-score) [13]: -0.091 | glycan array binding signal (z-score) [14]: -0.091 | glycan array binding signal (z-score) [15]: -0.048 | glycan array binding signal (z-score) [16]: -0.091 | glycan array binding signal (z-score) (Neu5Ac(a2-6)Gal(b1-4)Glc): -0.091 | glycan array binding signal (z-score) [17]: -0.091 | glycan array binding signal (z-score) [18]: -0.091 | glycan array binding signal (z-score) [19]: -0.091 | glycan array binding signal (z-score) [20]: -0.091 | glycan array binding signal (z-score) [21]: -0.091 | glycan array binding signal (z-score) [22]: -0.091 | glycan array binding signal (z-score) [23]: -0.091 | glycan array binding signal (z-score) [24]: -0.091 | glycan array binding signal (z-score) [25]: -0.091 | glycan array binding signal (z-score) [26]: -0.091 | glycan array binding signal (z-score) (Neu5Ac(a2-6)Gal6S): -0.091 | glycan array binding signal (z-score) [27]: -0.091 | glycan array binding signal (z-score) [28]: -0.091 | glycan array binding signal (z-score) (Neu5Ac(a2-6)GalNAc): -0.091 | glycan array binding signal (z-score) (Neu5Ac(a2-6)Glc): -0.091 | glycan array binding signal (z-score) (Neu5Ac(a2-6)Glc6S): -0.091 | glycan array binding signal (z-score) (Neu5Ac(a2-6)GlcNAc): -0.091 | glycan array binding signal (z-score) (Neu5Ac(a2-6)GlcNAc6S): -0.091 | glycan array binding signal (z-score) (Neu5Ac(a2-8)Neu5Ac): -0.091 | glycan array binding signal (z-score) [29]: -0.091 | glycan array binding signal (z-score) [30]: -0.091 | glycan array binding signal (z-score) [31]: -0.091 | glycan array binding signal (z-score) [32]: -0.091 | glycan array binding signal (z-score) [33]: -0.091 | glycan array binding signal (z-score) [34]: -0.091 | glycan array binding signal (z-score) [35]: -0.091

Source: the supplement of paper PMC8728848
